Measured values taken from PubChem BioAssay AID445 (National Center for Advancing Translational Sciences (NCATS), 2006).
Hit rate of the full screen: of about 110,000 compounds, about 40 (0.04%) were called active. Inconclusive results, whose numbers are uncertain, are shown with a selection of clear calls. The call rests on the fitted dose curve; in most records, active means well fitted curve in the direction sought with a large enough effect in the signal ratio (not every such curve was filed as active); inconclusive means small, poorly fitted or top-dose-only effect, or a change in a side signal; inactive means flat fitted curve, though single readings scatter; the % refers to the signal ratio. Potencies of inconclusive entries are doubtful fits and often do not repeat.

Test: IkB Signaling;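 on IkBa stabilization activation: 0% = basal untreated cells and 100% = reference inhibitor full response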
Details: ABC-DLBCL IkBa-CBG/CBR dual luciferase ratio (green luciferase fused to IkBa over red control in OCI-Ly3 lymphoma cells), 4 h; IkBa stabilization activation: at 57.1 µM (top of the series), scaled: untreated 0%, proteasome inhibitor 100% unless noted
Method in brief: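 Curves were fitted separately to fusion (green), unfused (red) and ratio luminescence, then classed by r2, magnitude and activity. Cells: OCI-Ly3, 4 h compound plus doxycycline at 37C; 10 uM MG-132 defined full response.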
Potency means the concentration at half of the fitted maximal effect.

Structure (SMILES) | IkBa stabilization activation | Potency
COc1ccc(NC(=O)N2CCN(c3nc(-c4cccc(OC)c4)cs3)CC2)cc1 | inconclusive: -2.18% [signal inhibitor] | 
CCc1ccc(-c2nc(SCC(=O)NCCOC)c(-c3ccc(C)cc3)[nH]2)cc1 | inconclusive: 6.54% [signal inhibitor] | 
CCc1ccc(CNc2nc3nc(C)c(Cc4ccccc4)c(=O)n3[nH]2)cc1 | inconclusive: 1.24% [signal inhibitor] | 
CCc1ccc(CN2CCc3nc(Nc4ccc5c(c4)OCCO5)ncc3C2)cc1 | inconclusive: 6.9% [signal inhibitor] | 
CC(=O)c1cccc(NC(=O)C2=CC(c3ccco3)=NS(=O)(=O)N2C)c1 | inconclusive: 2.62% [signal inhibitor] | 
COc1ccc(Nc2nnc(-c3ccc(C)c(S(N)(=O)=O)c3)c3ccccc23)cc1 | inconclusive: 7.45% [signal inhibitor] | 
CCN(C(=O)c1cn(C)c(=O)c2cc(OC)c(OC)cc12)c1cc(C)ccc1C | inactive: -0.126% | 
COc1ccc(CCNc2oc(COc3ccc(Cl)cc3)nc2C#N)cc1OC | inconclusive: 10.5% [signal inhibitor] | 
CCc1ccc2nc(N3CCN(C(=O)c4ccco4)CC3)sc2c1 | inactive: -1.37% | 
CCC(Sc1nnc(C)s1)C(=O)Nc1nccs1 (stereo not given) | inactive: 2.78% | 
COc1ccc(Cl)cc1N(C)C(=O)Cn1cnc2sc(C)c(S(=O)(=O)N3CCN(c4ncccn4)CC3)c2c1=O | inconclusive: 0.216% [signal inhibitor] | 
Cc1ccc(C)c(CN2C(=O)c3ccccc3S(=O)(=O)c3ccc(C(=O)N4CCOCC4)cc32)c1 | inconclusive: -1.34% [signal inhibitor] | 
O=C(COc1ccccc1)N(Cc1ccco1)c1ccc(O)cc1 | inactive: -0.975% | 
CCOc1ccccc1C(=O)Nc1ccc(S(=O)(=O)N2CCOCC2)cc1 | inactive: -0.0264% | 
CCC(=O)N[C@@H]1CCc2cccc(OC)c2C1 | inactive: 0.562% | 
CCC(=O)c1cc(F)c(N2CCN(C(=O)Cc3ccccc3)CC2)cc1C | inconclusive: 10.5% [signal inhibitor] | 
CCCCO | inactive | 
Cn1c(=O)c2c(nc(NC3CCCCC3)n2Cc2ccccc2)n(C)c1=O | inconclusive: 5.26% [signal inhibitor] | 
CCOc1ccccc1CNC(=O)CCCN1C(=O)CCn2nc(-c3cccn3C)cc21 | inconclusive: 2.15% [signal inhibitor] | 
Cc1ccc(CNC(=O)C2CCN(S(=O)(=O)c3ccc4c(c3)oc(=O)n4C)CC2)cc1 | inconclusive: 3.14% [signal inhibitor] | 
COc1ccccc1C1=Nn2c(nnc2C2CCCCC2)SC1 | inconclusive: 1.88% [signal inhibitor] | 
Cn1c2ccccc2c2ncn(CCC3=CCCCC3)c(=O)c21 | inconclusive: 3.04% [signal inhibitor] | 
C=CCSc1nc2c(c(=O)[nH]c(=O)n2C)n1CC | inactive: -1.19% | 
CCOC(=O)c1c(C)[nH]c(C)c1S(=O)(=O)N1CCCC(C(=O)N2CCN(c3cc(C)ccc3C)CC2)C1 (stereo not given) | inconclusive: -3.07% [signal inhibitor] | 

Structure (SMILES) | IkBa stabilization activation | Potency
Cc1cc(C)c(/C=C/c2onc(C)c2S(=O)(=O)N2CCC(C(=O)N3CCN(c4ccccc4)CC3)CC2)c(C)c1 | inactive: -0.738% | 
COC(=O)c1ccc(Cn2c(SCc3cccc(C)c3)nc3ccncc32)cc1 | inactive: 6.74% | 
CCOC(=O)c1sc2ncn(CC(=O)Nc3ccc(C)cc3C)c(=O)c2c1C | inactive: 2.58% | 
Cc1ccc(-c2ccc(=O)n(C(C)C(=O)Nc3ccccc3Cl)n2)cc1C (stereo not given) | inconclusive: -0.407% [signal inhibitor] | 
CC1CCc2nc3ncn(CC(=O)Nc4cccc(C#N)c4)c(=O)c3cc2C1 (stereo not given) | inconclusive: -1.86% [signal inhibitor] | 
COc1ccc(S(=O)(=O)N(CC(=O)N2CCC(C)CC2)c2ccc(C)cc2)cc1 | inconclusive: 3.53% [signal inhibitor] | 
CCOC(=O)Cc1csc(NC(=O)COc2ccccc2OC)n1 | inconclusive: 8.16% [signal inhibitor] | 
CCSc1nnc(-c2ccc(Cl)cc2Cl)o1 | inactive: -0.557% | 
CCc1ccccc1Nc1nn2c(=O)c3ccc(C(=O)Nc4cc(C)cc(C)c4)cc3nc2s1 | inconclusive: 1.3% [signal inhibitor] | 
Cc1occc1-c1nnc(SCC(=O)NCCc2ccccc2)n1Cc1ccccc1 | inconclusive: 2.09% [signal inhibitor] | 
CCOC(=O)c1cccc(NC(=O)CCCn2c(C)c3cnn(-c4ccccc4)c(=O)c3c2C)c1 | inconclusive: -0.802% [signal inhibitor] | 
COc1cc(C2CC(=O)Nc3c2c(=O)n(C)c(=O)n3C)cc(OC)c1OC (stereo not given) | inactive: 1.56% | 
NC(N)=NC[C@H](N)C(=O)O | inactive: -0.91% [at 11.4 µM, scaled: untreated 0%, proteasome inhibitor 100%] | 
CCCCn1c(CNC(=O)c2ccc(OC)cc2)nnc1SCC(=O)Nc1ccccc1 | inconclusive: 1.7% [signal inhibitor] | 
CC(=O)N1CCN(S(=O)(=O)c2cccc(C(=O)Nc3nc4ccccc4[nH]3)c2)CC1 | inconclusive: 2.09% [signal inhibitor] | 
Cc1ccc(CNC(=O)CCC(=O)N2CC(C)Sc3ccccc32)cc1 (stereo not given) | inconclusive: -0.623% [signal inhibitor] | 
Cc1oc2c(CN3CCOCC3)c(O)ccc2c(=O)c1-c1ccccc1 | inactive: 0.423% | 
S=c1nc2ccccc2c2nc(-c3ccccc3)[nH]n12 |  | inconclusive: 25.1 µM [rising, partial curve]
COc1ccc(Oc2ncc3nc(-c4cccs4)c(=O)n(CCC#N)c3n2)cc1 | inactive: -1.43% [at 11.4 µM, scaled: untreated 0%, proteasome inhibitor 100%] | 
CC(C)N(C(=O)Cn1cc(S(=O)(=O)Cc2ccc(C(F)(F)F)cc2)c2ccccc21)C(C)C | inconclusive: 2.21% [signal inhibitor] | 
Oc1cccc2ccc(SSc3ccc4cccc(O)c4n3)nc12 | inactive: -0.0319% [at 11.4 µM, scaled: untreated 0%, proteasome inhibitor 100%] | 
CCC(=O)O[C@@]1(C(=O)SCF)[C@@H](C)C[C@H]2[C@@H]3C[C@@H](F)C4=CC(=O)C=C[C@@]4(C)[C@]3(F)[C@@H](O)C[C@]21C | inconclusive: 17.8% [signal activator] [at 25.6 µM, scaled: untreated 0%, proteasome inhibitor 100%] | 
CCOc1ccc(-n2c(=O)c3c(C)c(C(=O)N(C)C)sc3n(CC(=O)Nc3c(C)cc(C)cc3C)c2=O)cc1 | inactive: -3.04% | 
O=C(CC1C(=O)NCCN1C(=O)Nc1ccccc1)Nc1ccc2c(c1)OCCO2 (stereo not given) | inactive: -0.377% | 

Structure (SMILES) | IkBa stabilization activation | Potency
COc1ccc2c(Sc3ccc(Cl)cc3)c(C(=O)NCCCN3CCCCC3)[nH]c2c1 | inconclusive: -0.295% [signal inhibitor] | 
Cc1cccc(NC(=O)CSc2nc3c([nH]c4ccccc43)c(=O)n2C)c1 | inconclusive: 0.254% [signal inhibitor] | 
Cc1ccc(CN(C(=O)COc2ccc(C)c(C)c2)C2CCS(=O)(=O)C2)o1 (stereo not given) |  | inconclusive: 25.1 µM [signal inhibitor]
CCN(CC)S(=O)(=O)c1cccc(-c2nnc(SCC#N)n2Cc2ccccc2)c1 | inactive: 0.639% | 
COc1ccc(OCc2nnc(-c3ccccc3)o2)cc1 | inactive: 0.188% | 
CN(C)c1ccc(NC(=O)CN2CCC(C(=O)c3ccc(F)cc3)CC2)cc1 | inactive: -0.0638% | 
Cc1nn(C)c2c1c(C(F)(F)F)cc(=O)n2CC(=O)NCc1ccccc1Cl | inconclusive: 1.93% [signal inhibitor] | 
Cc1cc(F)ccc1NC(=O)c1sc2nc(-c3cccs3)ccc2c1N | inconclusive: 11% [signal inhibitor] | 
CCc1cccc(CC)c1NC1=NS(=O)(=O)c2ccccc21 | inactive: 2.64% | 
CCOc1ccccc1NC(=O)C(C)Sc1nc2c(c(=O)[nH]1)CCCC2 (stereo not given) | inconclusive: 0.476% [signal inhibitor] | 
CC(C)OCCCN1C(=O)c2[nH]nc(-c3ccccc3O)c2C1c1ccc(OCc2ccccc2)cc1 (stereo not given) | inconclusive: -2.24% [signal inhibitor] | 
N#Cc1nc(COc2ccccc2)oc1N1CCN(c2cccc(Cl)c2)CC1 | inactive: -0.725% | 
Cc1ccc(CC(=O)Nc2c(C(=O)N3CCN(c4ccccc4F)CC3)oc3ccccc23)cc1 | inconclusive: 0.689% [signal inhibitor] | 
Cc1ccc(NS(=O)(=O)c2ccc3c(c2)NC(=O)CCS3)c(Br)c1 | inconclusive: -2.23% [signal inhibitor] | 
CCOCCCNC(=O)CCc1nnc2ccc(N3CCN(c4cccc(OC)c4)CC3)nn12 | inconclusive: -0.181% [signal inhibitor] | 
Cc1ccc(NCc2nnc3n2CCCCC3)cc1Cl | inactive: -1.12% | 
Cc1oc(-c2ccccc2)nc1CNC(=O)Nc1ccccc1 | inconclusive: 1.22% [signal inhibitor] | 
CC1=C(C(=O)OCC2CCCCC2)C(c2c(F)cccc2Cl)CC(=O)N1 (stereo not given) | inconclusive: 8.74% [signal inhibitor] | 
COc1cc(OC)c(NC(=O)Nc2ccccc2OCc2cc(=O)n3cc(C)ccc3n2)cc1Cl | inconclusive: -0.248% [signal inhibitor] | 
COCCNC(=O)c1cc(Sc2ccc(F)cc2F)nc2ccccc12 | inconclusive: -0.765% [signal inhibitor] | 
O=C(c1ccc2c(c1)N(Cc1ccc(F)cc1)C(=O)c1ccccc1S2(=O)=O)N1CCC(Cc2ccccc2)CC1 | inconclusive: -0.481% [signal inhibitor] | 
O=C(NCc1ccc2c(c1)OCO2)C(c1ccco1)N(C(=O)c1csnn1)c1ccccc1 (stereo not given) | inactive: -0.206% | 
